Laboratory results: PubChem BioAssay AID1345082 (National Center for Advancing Translational Sciences (NCATS), 2018)
In all, about 94,000 compounds went through this assay and about 4,000 (4.3%) were called active. The shares of active, inactive and inconclusive entries below differ from those in the screen. The call rests on the fitted dose curve; in most records, active means well fitted inhibition curve with a large enough effect; inconclusive means small, poorly fitted or top-dose-only effect; inactive means no such curve, though single readings can be large or run the other way. Potencies beside an inconclusive call are fits to weak or partial responses and may not hold up.

Experiment: Cytotoxic Profiling in NIH 3T3 Cell Line of Diverse Libraries Using Quantitative High-Throughput Screening; further: nearly all actives have a fitted effect of over 55% in size
Conditions: NIH 3T3 viability, CellTiter-Glo ATP luminescence, 48-72 h; activity change, negative = cytotoxicity: at 96.7 µM (top of the series) unless noted; series mostly up to 96.7 µM
Outline: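 Cytotoxicity was measured by CellTiter-Glo ATP luminescence after 48 or 72 h compound exposure at 37 °C. Mouse NIH 3T3 fibroblasts were seeded at 400 cells/well and dosed by 23 nL pin transfer.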
On the % scale 0 is the no-effect control and ±100 the full control effect; potency means the concentration at half of the fitted maximal effect; tags describe the fitted curve by direction and shape.

Compound	Potency	outcome	activity change, negative = cytotoxicity
COc1ccc(-c2c(C(=O)NCc3cccc(OC)c3)nc3sccn23)cc1	inconclusive: 89.1 µM [inhibitor, partial curve, poor fit]		
COc1ccccc1[C@@H]1CN(C(=O)c2ccc3n[nH]nc3c2)C[C@H]1C(=O)O		inactive	
O=C1CC(c2ccccc2)N(C(=O)CNS(=O)(=O)c2ccc3c(c2)OCCO3)CCCCCN1 (centres undefined)	inconclusive: 50.1 µM [inhibitor, single point]		
COc1ccc(-n2nnnc2N2CCN(C(=O)Nc3ccc(C)c(F)c3)CC2)cc1C	inconclusive: 44.7 µM [inhibitor, partial curve, poor fit]		
COc1ccc(-c2noc(N3CCc4ccccc43)n2)cc1			inactive: -9.56%
Cn1c([C@H]2CCN(Cc3ccccc3)C2)nc2ccccc21	inconclusive: 112 µM [inhibitor, partial curve, poor fit]		
COc1ccccc1CC(=O)Nc1ccc2ncnc(N3CCCCC3)c2c1	inconclusive: 44.7 µM [inhibitor, partial curve, poor fit]		
O=C(c1nc(-c2ccc(Cl)nc2)c2ccccn12)N1CCOCC1	inconclusive: 50.1 µM [inhibitor, single point]		
COc1ccc(-n2c(=O)c3c(n2Cc2ccccc2)CN(Cc2c[nH]c4ccccc24)CC3)cc1	inconclusive: 70.8 µM [inhibitor, single point]		
CNC(=O)C1CCN(c2nccc(Nc3ccccc3Cl)n2)CC1	inconclusive: 79.4 µM [inhibitor, partial curve]		
CN(C)C(=O)N1CCC2(CC1)CN(Cc1ccncc1)Cc1ccccc1O2		inactive	
CC1=C[C@@H](CNc2ccccn2)[C@H](C(C)C)C[C@H]1Cc1nnc(-c2cncn2C)o1	inconclusive: 70.8 µM [inhibitor, partial curve]		
Cc1noc(C)c1C(=O)N1CCN(c2cccc(C=O)c2)C(=O)C1	inconclusive: 89.1 µM [inhibitor, single point]		
CCc1nc2nccc(-c3ccc4c(c3)OCCCO4)n2n1	inconclusive: 70.8 µM [inhibitor, single point]		
Cc1ccc(C(=O)N2CCN(c3cc(-c4ccccc4)[nH]n3)CC2)cc1F	inconclusive: 50.1 µM [inhibitor, partial curve, poor fit]		
Cc1ccc(C2(O)CCN(C(=O)[C@@H](N)Cc3cnc[nH]3)CC2)nc1			inactive: -7.88%
N#Cc1ccccc1OCC1CN(Cc2cccc(C(F)(F)F)c2)C(=O)c2c(ccnc2-c2ccc(OCC(=O)O)cc2)O1 (centres undefined)	inconclusive: 22.4 µM [inhibitor, full curve, poor fit]		
O=c1cc(-c2ccccn2)oc2c(-c3cn[nH]c3)nccc12	active: 11.2 µM		
CNC(=O)[C@H]1CN(C(=O)c2cc3ccccc3s2)[C@]2(C)C(=O)N(C)c3ccccc3[C@H]12	inconclusive: 35.5 µM [inhibitor, single point]		
COc1ccccc1-c1cnc2n[nH]c(-c3sccc3C)c2n1	inconclusive: 39.8 µM [inhibitor, partial curve, poor fit]		

Compound	Potency	outcome	activity change, negative = cytotoxicity
CCCc1cc(C(=O)N2CCOC(c3ccc(Cl)c(Cl)c3)C2)ccn1 (centres undefined)	inconclusive: 35.5 µM [inhibitor, partial curve, poor fit]		
Cc1noc(-c2cn(C3CCN(C(=O)c4ccc(F)cc4Cl)C3)nn2)n1 (centres undefined)			inactive: -22.4%
Cc1noc(-c2cccn3c(CNC(=O)c4cccc(F)c4)nnc23)n1			inactive: -15.1%
COCCN1CC(CO)C2(CCN(C(=O)COc3cccc(C)c3)CC2)C1 (centres undefined)			inactive: -1.47%
Cc1ccc([S+](=O)([O-])N2CCC(C(=O)N3CCC4(CC3)CC(=O)Nc3ccccc3O4)CC2)cc1	inconclusive: 44.7 µM [inhibitor, partial curve, poor fit]		
O=C1NCCC[C@@H]1NC(=O)[C@@H]1CN(C(=O)c2cccc(F)c2)CCN1C(=O)c1cnccn1			inactive: -3.09%
Fc1ccc(CN2CCOC[C@H]2c2ncc(-c3ccc(F)cc3)[nH]2)cc1	inconclusive: 100 µM [inhibitor, partial curve]		
Cc1ccc(C(=O)N2CCC3(CC2)CC(CO)N(C(=O)c2ccccc2)C3)s1 (centres undefined)			inactive: -13.8%
O=C(Nc1ccc(Cl)cc1)C1=NO[C@@H]2CN(c3ccccc3)C[C@H]12	inconclusive: 79.4 µM [inhibitor, partial curve, poor fit]		
CC(C)C[C@@H]1N[C@H](C(=O)NCc2ccc(F)cc2)Cc2cn(C)c3cccc1c23	inconclusive: 100 µM [inhibitor, partial curve]		
Cc1ccc(S(=O)(=O)N2CCc3nc(N(C)Cc4cccnc4)[nH]c(=O)c3CC2)cc1	inconclusive: 31.6 µM [inhibitor, partial curve, poor fit]		
O=C(CCC1CCN(C(=O)c2ccccc2Cl)CC1)N1CCc2ccccc2C1	inconclusive: 31.6 µM [inhibitor, partial curve, poor fit]		
CC1(c2ccccc2)N(Cc2ccc(O)cc2)C(=O)OC12CCN(C(=O)Cc1ccccc1)CC2 (centres undefined)	inconclusive: 3.98 µM [inhibitor, full curve, poor fit]		
Cc1nc(C)c(C(=O)NCCc2noc(-c3ccncc3)n2)s1	inconclusive: 11.2 µM [inhibitor, partial curve, poor fit]		
CN1C(=O)[C@@H]2C[C@@H](CN2C2CCOCC2)Oc2ccccc21	inconclusive: 112 µM [inhibitor, single point]		
Clc1cc(NCCOc2ccccc2)n2nccc2n1	inconclusive: 79.4 µM [inhibitor, partial curve]		
COC(=O)NC1CCN(c2nccc(Nc3ccccc3OC)n2)CC1	inconclusive: 50.1 µM [inhibitor, partial curve, poor fit]		
CN(Cc1cccnc1)Cc1nc(C2(O)CCN(Cc3ccccc3C(F)(F)F)CC2)cs1	inconclusive: 44.7 µM [inhibitor, partial curve, poor fit]		
O=C(c1nnn2c1COC(c1ccccc1)C2)N1CCN(C(=O)c2cccc3[nH]ccc23)CC1 (centres undefined)	inconclusive: 44.7 µM [inhibitor, partial curve, poor fit]		
